SMILES strings stand for the structures. The whole screen tested about 310,000 compounds, of which about 2,200 (0.71%) showed an effect of 50% or more. Effects have a minus sign here. The list shows a part of the results.

human ether-à-go-go-related gene (hERG) potassium channel, sequence (Q12809 whole entry, looked up): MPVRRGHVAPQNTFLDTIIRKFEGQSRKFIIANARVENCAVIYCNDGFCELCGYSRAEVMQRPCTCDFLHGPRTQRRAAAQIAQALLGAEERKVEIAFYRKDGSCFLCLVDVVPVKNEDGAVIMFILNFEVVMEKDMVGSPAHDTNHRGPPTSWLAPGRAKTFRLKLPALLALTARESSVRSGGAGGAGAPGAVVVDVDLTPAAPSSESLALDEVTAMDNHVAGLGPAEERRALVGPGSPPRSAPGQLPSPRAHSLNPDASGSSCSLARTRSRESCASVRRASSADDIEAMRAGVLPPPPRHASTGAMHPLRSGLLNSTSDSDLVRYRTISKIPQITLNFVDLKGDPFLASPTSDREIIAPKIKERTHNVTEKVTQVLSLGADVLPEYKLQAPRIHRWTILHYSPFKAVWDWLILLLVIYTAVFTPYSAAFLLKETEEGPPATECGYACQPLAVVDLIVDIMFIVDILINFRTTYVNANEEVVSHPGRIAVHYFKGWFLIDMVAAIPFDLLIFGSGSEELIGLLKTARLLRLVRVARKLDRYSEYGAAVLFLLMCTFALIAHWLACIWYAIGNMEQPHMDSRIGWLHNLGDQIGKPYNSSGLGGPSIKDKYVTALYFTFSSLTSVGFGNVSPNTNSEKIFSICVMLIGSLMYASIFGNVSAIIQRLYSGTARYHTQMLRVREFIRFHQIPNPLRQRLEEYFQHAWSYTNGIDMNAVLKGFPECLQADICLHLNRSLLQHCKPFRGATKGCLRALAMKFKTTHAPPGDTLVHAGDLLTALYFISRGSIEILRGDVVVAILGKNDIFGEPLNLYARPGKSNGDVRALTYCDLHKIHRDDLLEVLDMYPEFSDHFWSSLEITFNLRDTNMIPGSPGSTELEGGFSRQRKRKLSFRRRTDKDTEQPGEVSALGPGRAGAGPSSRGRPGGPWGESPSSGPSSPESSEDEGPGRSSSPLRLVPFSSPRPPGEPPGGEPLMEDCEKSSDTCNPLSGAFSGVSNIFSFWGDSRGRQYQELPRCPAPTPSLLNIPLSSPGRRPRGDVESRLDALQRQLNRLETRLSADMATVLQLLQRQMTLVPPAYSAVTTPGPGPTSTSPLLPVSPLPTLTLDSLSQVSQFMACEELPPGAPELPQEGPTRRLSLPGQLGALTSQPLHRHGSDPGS

This test has as its target human ether-à-go-go-related gene (hERG) potassium channel (human, UniProt Q12809). The experiment in a line: primary screen, population patch clamp on CHO cells stably expressing hERG.
As for `COc1ccc(CNCC(O)(c2ccccc2)c2ccc(F)cc2)cc1` (stereo not drawn), the “hERG current change (%, negative = inhibition) at 1uM” value is listed as -45.9%. As to `CCOc1ccc2nc(N3CCC(C(=O)N4CCN(c5ccccn5)CC4)CC3)sc2c1`, the “hERG current change (%, negative = inhibition) at 1uM” value is given as -17.4%. Take `CCOc1cc(C(=O)NCCOC)ccc1OC`: the “hERG current change (%, negative = inhibition) at 1uM” value was determined as 4.99%. For the compound `Cc1ccc(C(=O)COC(=O)c2cccc(NC(=O)c3ccc([N+](=O)[O-])cc3[N+](=O)[O-])c2)cc1`, the “hERG current change (%, negative = inhibition) at 1uM” value is recorded as 13.6%. `CCc1nnc(N/N=C/c2ccccc2Cl)n1N.Cl`: the “hERG current change (%, negative = inhibition) at 1uM” value was determined as 11.1%. In the case of `Cc1cccc(C(C)C)c1NC(=O)C1CN(S(=O)(=O)c2ccccc2)CCN1S(=O)(=O)c1ccccc1` (stereo not drawn), the “hERG current change (%, negative = inhibition) at 1uM” value stood at 7.22%. Consider `COc1ccccc1CCNC(=O)CCNS(=O)(=O)c1ccc(NC(C)=O)cc1`, for which the “hERG current change (%, negative = inhibition) at 1uM” value came to 19.7%. Regarding `Cc1cc(OC(=O)C(c2ccccc2)c2ccccc2)c([N+](=O)[O-])c(=O)[nH]1`, the “hERG current change (%, negative = inhibition) at 1uM” value is 17.2%.

`Nc1nc2nccc(-c3ccccn3)n2n1`: the “hERG current change (%, negative = inhibition) at 1uM” value is 6.42%. For `O=C1COc2ccc(N3C(=O)c4ccccc4C3=O)cc2N1`, the “hERG current change (%, negative = inhibition) at 1uM” value came to 10.5%. Next, `CCC(=O)Nc1cccc(-c2cn3ccccc3n2)c1`: 8.01%; `Cc1cccnc1NC(=S)NCc1ccco1`: -0.423%. To `COc1cc(OC)cc(-c2n[nH]c(=S)n2-c2ccc3c(c2)OCO3)c1` belongs 11.3%. As for `COc1ccc(C(CNC(=O)Nc2ccc(Cl)cc2)N2CCN(C)CC2)cc1` (stereo not drawn), the “hERG current change (%, negative = inhibition) at 1uM” value is reported as 14.3%.

As to `Cc1ccc(-c2noc(CNC(=O)c3ccoc3C)n2)cc1`, the “hERG current change (%, negative = inhibition) at 1uM” value is 10.7%. With `Cc1ccc(C(=O)C[n+]2cc(-c3ccc(C)cc3)n3c2CCCCC3)cc1.[Br-]`, the “hERG current change (%, negative = inhibition) at 1uM” value was -18.2%.

With `CCCc1cc(=O)[nH]c(SCC(=O)N2C(C)CCCC2C)n1` (stereo not drawn), the “hERG current change (%, negative = inhibition) at 1uM” value was determined as 8.35%. As for `Cc1ccc(C(=O)O)cc1S(=O)(=O)NCC1CCCO1` (stereo not drawn), the “hERG current change (%, negative = inhibition) at 1uM” value is 6.72%.

As for `CC(C)Cn1c(N)c(C=O)c(=O)[nH]c1=O`, the “hERG current change (%, negative = inhibition) at 1uM” value worked out at 7.91%. For `COC(=O)c1ccc(C2NC(=O)NC(C)=C2C(=O)N(C)C)cc1` (stereo not drawn), the “hERG current change (%, negative = inhibition) at 1uM” value was 5.68%. As for `CCOC(=O)C1=C(C)NC2=C(C(=O)CCC2)C1c1ccc(N(C)C)cc1` (stereo not drawn), the “hERG current change (%, negative = inhibition) at 1uM” value came out at 6.74%. To `CCCn1c(SCC(=O)NC2CCCC2)nnc1-c1ccccn1` belongs 15.4%; to `COc1ccccc1N1C(=O)NC(=O)C(CCc2ccncc2)(CCc2ccncc2)C1=O`, -5.11%; to `O=C(O)COc1ccc(Br)cc1C(c1c(C(=O)O)[nH]c2ccccc12)c1c(C(=O)O)[nH]c2ccccc12`, 19.7%. With `O=C(Cn1ncn2c(cc3ccccc32)c1=O)NCCC1=CCCCC1`, the “hERG current change (%, negative = inhibition) at 1uM” value came out at 12.5%.

For the compound `COc1ccccc1CNC(=O)COC(=O)c1ccc(C)s1`, the “hERG current change (%, negative = inhibition) at 1uM” value is 12.2%. Regarding `FC(F)(F)c1cc(C(F)(F)F)c2ccc(N3CCOCC3)nc2n1`, the “hERG current change (%, negative = inhibition) at 1uM” value worked out at 13.3%. In the case of `CC1CCCN(Cc2nc3c(c(=O)n(C)c(=O)n3C)n2Cc2c(F)cccc2Cl)C1` (stereo not drawn), the “hERG current change (%, negative = inhibition) at 1uM” value stood at 8.62%. Regarding `O=C(c1ccc2c(c1)OCO2)C1CCCN(Cc2cn[nH]c2-c2cccc(F)c2)C1` (stereo not drawn), the “hERG current change (%, negative = inhibition) at 1uM” value is recorded as -42.7%. Turning to `CCCCC(=O)N/N=C/c1c(O)n(CCc2ccc(OC)c(OC)c2)c(=O)[nH]c1=O`, the “hERG current change (%, negative = inhibition) at 1uM” value was found to be 4.85%. To `C/C(NC(=O)c1cccc(F)c1)=C1/C(=O)C[C@@H]2[C@H]1C2(C)C` belongs 10.6%; to `CCOC(=O)c1c(C)c(C(=O)NCCCOC(C)C)c(C)n1C`, 2.8%; to `COc1cccc(-n2c(=O)c3c(C)c(C(=O)N(C)C)sc3n(CC(=O)NCCc3ccc(OC)c(OC)c3)c2=O)c1`, 5.15%. On to `COc1ccc(NC(=O)CSc2cc(C)ccc2C)cn1`, for which the “hERG current change (%, negative = inhibition) at 1uM” value came out at 9.89%. Next, `CN1CCN(S(=O)(=O)c2cccc(C(=O)Nc3cc(C(N)=O)cc(C(N)=O)c3)c2)CC1`: 11.7%; `Cc1ccc(S(=O)(=O)N2CCOCC2)cc1NC(=O)CSc1nnnn1C1CCCC1`: 4.17%; `CCOc1ccc2oc(C(=O)NN3C(C)CCCC3C)c(C)c2c1` (stereo not drawn): 5.61%.

Regarding `CCOC(=O)c1sc2nc(C(C)C)c3c(c2c1N)CCC3`, the “hERG current change (%, negative = inhibition) at 1uM” value was 2.49%. To `CCCn1c(=O)[nH]c(=O)c2c1nc(-c1ccc(OC(F)F)cc1)n2CCN1CCOCC1` belongs -6.58%; to `CNC(=S)NCc1ccc2[nH]c(C)cc2c1`, 7.26%.

Regarding `Nc1nc(Cl)nc2c1ncn2[C@H]1C[C@H](O)[C@@H](CO)O1`, the “hERG current change (%, negative = inhibition) at 1uM” value worked out at 15.7%. For `COc1cccc(C2CC(c3cccc(OC)c3)n3nc(N)nc3N2)c1` (stereo not drawn), the “hERG current change (%, negative = inhibition) at 1uM” value was 1.52%. Regarding `CC(C)CNc1nc(N)c([N+](=O)[O-])c(NCc2ccccc2)n1`, the “hERG current change (%, negative = inhibition) at 1uM” value amounted to 11.8%. Consider `CC(=O)Nc1ccc(N2C(=O)CC(Sc3nc4ccccc4s3)C2=O)cc1` (stereo not drawn), for which the “hERG current change (%, negative = inhibition) at 1uM” value was 14.6%. Take `Br.O=C(Cn1c(NCCCO)nc2ccccc21)c1ccc(F)cc1`: the “hERG current change (%, negative = inhibition) at 1uM” value was -0.355%.

For `CCCN(C(=O)CSc1n[nH]c(-c2ccc(OC)cc2)n1)c1c(N)n(Cc2ccccc2)c(=O)[nH]c1=O`, the “hERG current change (%, negative = inhibition) at 1uM” value turned out to be 20.1%. Next, `CC(NC(=O)C1CCCO1)c1ccccc1` (stereo not drawn): 9.66%; `Cc1nn(-c2ccccc2)c2sc(-c3n[nH]c(=S)o3)cc12`: 11.9%; `CC1(C)Cc2c(ccc3ccccc23)C(=O)N1`: 10.8%. To `COc1ccccc1CCNC(=O)c1ccc(OC)c(OC2CCN(C(C)C)CC2)c1` belongs -4.22%; to `O=C(CC(=O)Nc1cccnc1)Nc1cccnc1`, 15%.

For `CCCn1c(S(=O)(=O)O)nc2ccccc21`, the “hERG current change (%, negative = inhibition) at 1uM” value was found to be 12.5%. Turning to `O=C1CCc2cc(S(=O)(=O)Nc3ccc(F)cc3)ccc2N1`, the “hERG current change (%, negative = inhibition) at 1uM” value was determined as 16.3%. Consider `CCCCCCCCNC(=O)c1ccc(C)cc1`, for which the “hERG current change (%, negative = inhibition) at 1uM” value is reported as 14.9%. To `COC(=O)c1cc(S(=O)(=O)NCc2ccc(S(N)(=O)=O)cc2)oc1C` belongs 13.7%; to `COc1ccc(CNC(=O)CC2C(=O)NCCN2C2Cc3ccccc3C2)cc1` (stereo not drawn), -4.37%.

With `COc1ccc(NC(=O)CN(C)C(=O)CCC(=O)c2ccc(C)cc2)cc1`, the “hERG current change (%, negative = inhibition) at 1uM” value amounted to 4.81%. As to `CC1CCN(C(=O)CSc2nnc(CN3CCOCC3)n2-c2ccccc2)CC1`, the “hERG current change (%, negative = inhibition) at 1uM” value was determined as 12.6%. Consider `COc1ccc(NC(=O)C2C3C=CC4(O3)C2C(=O)N(CCCN2CCCCC2)C4C(=O)NC2CCCC(C)C2C)cc1` (stereo not drawn), for which the “hERG current change (%, negative = inhibition) at 1uM” value was determined as 13.2%.

For `Cc1[nH]c2ccc3c(ncn3CCC#N)c2c1C`, the “hERG current change (%, negative = inhibition) at 1uM” value worked out at 6.7%. To `Cc1ccc(C(=O)Nc2sc(Cc3ccc4c(c3)OCO4)c(C)c2C(N)=O)cc1` belongs -1.81%.

Consider `CCCC1O[C@@H]2CC3C4CCC5=CC(=O)C=C[C@]5(C)C4C(OC(C)=O)C[C@]3(C)[C@]2(C(=O)COC(C)=O)O1` (stereo partly drawn), for which the “hERG current change (%, negative = inhibition) at 1uM” value was 6.79%. Regarding `O=C(N/N=C/c1cccc2ccccc12)c1n[nH]c2c1CCCC2`, the “hERG current change (%, negative = inhibition) at 1uM” value amounted to 2.66%. In the case of `Nc1nc(Cl)cc(Oc2ccc([N+](=O)[O-])cc2)n1`, the “hERG current change (%, negative = inhibition) at 1uM” value was 12.7%. Regarding `Cc1ccc(NC(=O)C2CCCN(S(=O)(=O)c3c(C)noc3C)C2)nc1` (stereo not drawn), the “hERG current change (%, negative = inhibition) at 1uM” value came out at 0.366%. For `COc1ncccc1C(=O)N1CCCC(N2CCN(c3cccc(Cl)c3)CC2)C1` (stereo not drawn), the “hERG current change (%, negative = inhibition) at 1uM” value is listed as 5.55%. Next, `CC(NC(=O)c1ccncc1)c1ccccc1` (stereo not drawn): 15%; `Cn1ccnc1C(=O)c1ccc(N)cc1`: 15.9%.

Turning to `Cc1ccc(NC=C(S(=O)(=O)c2ccccc2)S(=O)(=O)c2ccccc2)cc1`, the “hERG current change (%, negative = inhibition) at 1uM” value is reported as 3.59%. For the compound `Cc1nnc(SCC(=O)c2cc(C)n(C3CC3)c2C)s1`, the “hERG current change (%, negative = inhibition) at 1uM” value is -3.57%. As to `COc1cccc(C2(O)CCN(C(=O)C(C)C)CC2)c1`, the “hERG current change (%, negative = inhibition) at 1uM” value came out at 4.46%. To `CCOc1cc(/C=C2\CN(CC)C/C(=C\c3ccc(O)c(OCC)c3)C2=O)ccc1O.Cl` belongs -2.77%; to `O=C(NCc1nnc(SCc2ccc(C(F)(F)F)cc2)n1-c1ccccc1)C12CC3CC(CC(C3)C1)C2`, 8.2%. Regarding `Nc1nc2n(n1)C(=O)CC(c1ccc(Cl)cc1)N2` (stereo not drawn), the “hERG current change (%, negative = inhibition) at 1uM” value was found to be 12.9%. Turning to `COC(=O)Nc1ccc(N=C(N)N[N+](=O)[O-])cc1`, the “hERG current change (%, negative = inhibition) at 1uM” value worked out at 11.9%.

`CN1CCN(C(=O)C2=C[C@@H](C3CC3)C[C@@H](OCc3ccc(CO)cc3)O2)CC1`: the “hERG current change (%, negative = inhibition) at 1uM” value was 17.7%.

In the case of `CC(OC(=O)CCCN=C1NS(=O)(=O)c2ccccc21)C(=O)Nc1ccccc1[N+](=O)[O-]` (stereo not drawn), the “hERG current change (%, negative = inhibition) at 1uM” value is 10.5%. To `CC1(C)CC(=O)C2=C(C1)NC(SCC(N)=O)=C(C#N)C21CCCCC1` belongs 11.9%. Regarding `COc1cccc(N2CCN(Cc3ccsc3)CC2)c1`, the “hERG current change (%, negative = inhibition) at 1uM” value worked out at 5.85%. On to `COc1cccc2cc(C(=O)NCc3ccco3)c(=Nc3ccc(C(=O)O)cc3)oc12`, for which the “hERG current change (%, negative = inhibition) at 1uM” value is recorded as -1.82%. Next, `O=C(CCn1c(=O)oc2ccccc21)Nc1cccc(Cl)c1`: 1.71%; `O=C(Oc1ccc2ccccc2c1Cl)N1CCCC1`: 3.62%; `COc1cc2c(cc1OC)C1(CCCC1)CNC2c1cccc([N+](=O)[O-])c1` (stereo not drawn): -10.2%. Consider `CCOc1ccc2ccccc2c1C(=O)N[C@@H]1C(=O)N2[C@@H]1SC(C)(C)[C@@H]2C(=O)[O-].[Na+]`, for which the “hERG current change (%, negative = inhibition) at 1uM” value is 8.13%. Next, `CCOC(=O)C1CCCN(C(=O)c2sc3nc(C)nc(N4CCOCC4)c3c2C)C1` (stereo not drawn): 9.16%; `CCC(=O)N1CCc2cc(S(=O)(=O)CCC(=O)NCCc3ccc(S(N)(=O)=O)cc3)ccc21`: 15.7%. As for `O=C(O)CNS(=O)(=O)c1cc(Cl)c(Cl)cc1Cl`, the “hERG current change (%, negative = inhibition) at 1uM” value amounted to 13%.

Values taken from PMC4336329 (PLoS ONE, 2015).
